Measured values taken from PubChem BioAssay AID493208 (National Center for Advancing Translational Sciences (NCATS), 2011).
The campaign covered roughly 44,000 compounds. About 340 (0.77%) were called active. Another 5% or so got no clear call; they are omitted. Calls follow the shape of the dose curve; as a rule, active = well fitted inhibition curve with a large enough effect; inconclusive = small, poorly fitted or top-dose-only effect; inactive = flat fitted curve, though single readings scatter. The list shows a part of the results.

Assay: Acumen qHTS Assay for Inhibitors of the mTORC1 Signaling Pathway in MEF (Tsc2-/-, p53-/-) Cells: Sytravon;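 also: plate controls were DMSO for no effect and rapamycin for full effect; nearly all actives have a fitted effect of over 50% in size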
Conditions: phospho-rpS6 immunofluorescence/PI, 24 h; series mostly up to 38.3 µM; activity change, negative = inhibition: at the top concentration
In short: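 Compounds act on Tsc2-/-, p53-/- fibroblasts carrying an empty vector for 24 h before fixation and dual staining for phospho-S6 and DNA (propidium iodide). Values are percentages of cells above a rapamycin-defined pS6/PI threshold.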

Question: Which “activity change, negative = inhibition” value does the source give for `Cc1cccc(-c2nc(S(=O)(=O)c3ccc(Cl)cc3)c(N3CCCCCC3)o2)c1` here?
Answer: inactive: -17.9%

Question: Which “activity change, negative = inhibition” value does the source give for `Clc1ccccc1CNc1ncnc2c1nc1n2CCCC1` here?
Answer: inactive: 1.03%

Question: For `COC(=O)c1c(NC(=O)COc2ccc(C)cc2Br)sc2c1CCCC2`, which “activity change, negative = inhibition” value is on record?
Answer: inactive: -0.738%

Question: With `Cc1cccc(NC(=O)C2CCCN(S(=O)(=O)c3ccc4c(c3)oc(=O)n4C)C2)c1C` (configuration not stated) as the compound, how does the “activity change, negative = inhibition” value read?
Answer: inactive: 1.77%

Question: For `Cc1ccc(CNC(=O)CN(C)S(=O)(=O)c2ccc3c(c2)c(=O)n(C)c(=O)n3C)cc1`, which “activity change, negative = inhibition” value is on record?
Answer: inactive: -1.53%

Question: Which “activity change, negative = inhibition” value does the source give for `CCOc1ccc(N(C)S(=O)(=O)c2cc(-c3cc(C)no3)ccc2OC)cc1` here?
Answer: inactive: -1.24%

Question: With `COc1cccc(N2C(=O)C(CC(=O)Nc3ccccc3)N(CCc3sccc3C)C2=O)c1` (configuration not stated) as the compound, how does the “activity change, negative = inhibition” value read?
Answer: inactive: 1.91%

Question: With `CCc1ccccc1NC(=O)CN1C(=O)C2CCCN2c2ccc(S(=O)(=O)N(CC)CC)cc21` (configuration not stated) as the compound, how does the “activity change, negative = inhibition” value read?
Answer: inactive: -5.05%

Question: For `Cc1c(CNC2CCC(C)CC2)c(C(=O)O)c(C)n1Cc1ccc(Cl)cc1` (configuration not stated), which “activity change, negative = inhibition” value is on record?
Answer: inactive: -3.79%

Question: For `CCOC(=O)C(CC)Sc1ncnc2c1c(-c1ccccc1)cn2-c1ccc(OC)cc1` (configuration not stated), which “activity change, negative = inhibition” value is on record?
Answer: inactive: 1.35%

Question: For `O=C(CSc1nnc(-c2ccccc2)c(-c2ccccc2)n1)NCCc1ccccc1`, which “activity change, negative = inhibition” value is on record?
Answer: inactive: 2.27%

Question: For `CCn1c(=O)c2cc(C(=O)NCc3ccc(F)cc3Cl)sc2c2ccccc21`, which “activity change, negative = inhibition” value is on record?
Answer: inactive: -4.73%

Question: With `Cc1ccc(C)c(N(C)C(=O)c2cc3c(s2)-c2ccccc2OC3)c1` as the compound, how does the “activity change, negative = inhibition” value read?
Answer: inactive: -3.05%

Question: With `Cc1cc(=O)n(CC(=O)N2CCCc3ccccc32)c2c1c(C)nn2-c1cccc(F)c1` as the compound, how does the “activity change, negative = inhibition” value read?
Answer: inactive: 0.463%

Question: Which “activity change, negative = inhibition” value does the source give for `Cc1cc(C)c(OCC(=O)N(Cc2ccc(N(C)C)cc2)CC2CCCO2)c(C)c1` (configuration not stated) here?
Answer: inactive: 0.189%

Question: With `CCc1cccc(C)c1NC(=O)CCCn1c(C)c2cnn(-c3ccccc3)c(=O)c2c1C` as the compound, how does the “activity change, negative = inhibition” value read?
Answer: inactive: -0.239%

Question: For `CCCN(C(=O)Cc1nc(-c2ccc(OC)cc2)no1)c1ccccc1C`, which “activity change, negative = inhibition” value is on record?
Answer: inactive: -7.89%

Question: Which “activity change, negative = inhibition” value does the source give for `CCC(C)NC(=O)Cn1c(=O)n(CCCCCC(=O)Nc2ccccc2)c(=O)c2sccc21` (configuration not stated) here?
Answer: inactive: -6.65%

Question: Which “activity change, negative = inhibition” value does the source give for `CCCCOC(=O)c1ccc(OC(=O)c2sc3ncn(Cc4cccc(F)c4)c(=O)c3c2C)cc1` here?
Answer: inactive: 2.45%

Question: With `CCOC(=O)c1[nH]c(C)c(CCC(=O)Nc2ccccc2OCC)c1C` as the compound, how does the “activity change, negative = inhibition” value read?
Answer: inactive: -20.6%

Question: Which “activity change, negative = inhibition” value does the source give for `CN1C(=O)CC(C(=O)Nc2ccc(C(=O)O)cc2)SC1=Nc1ccc(Cl)cc1` (configuration not stated) here?
Answer: inactive: -1.11%

Question: For `Cn1c(=O)c2c(nc(NCCCCO)n2Cc2ccccc2Cl)n(C)c1=O`, which “activity change, negative = inhibition” value is on record?
Answer: inactive: -1.25%

Question: With `COc1ccc2c(C)c(CCC(=O)NCCc3ccc(OC)c(OC)c3)c(=O)oc2c1` as the compound, how does the “activity change, negative = inhibition” value read?
Answer: inactive: 4.6%

Question: With `COc1ccc(C(=O)Nc2nnc(SCc3cc(=O)c4cccc(F)c4[nH]3)s2)cc1` as the compound, how does the “activity change, negative = inhibition” value read?
Answer: inactive: 7.93%

Question: For `CCN(CC)CCCNC(=O)Cn1ncc2c3ccccc3n(Cc3ccccc3)c2c1=O`, which “activity change, negative = inhibition” value is on record?
Answer: inactive: 1.34%

Question: With `CCN(CC)c1ccc(NS(=O)(=O)c2cc(-c3onc(C)c3C)ccc2OC)c(C)c1` as the compound, how does the “activity change, negative = inhibition” value read?
Answer: inactive: 3.73%

Question: For `Cc1ccc2c(=O)cc(C(=O)Nc3ccc(S(=O)(=O)N4CCCCC4C)cc3)oc2c1C` (configuration not stated), which “activity change, negative = inhibition” value is on record?
Answer: inactive: 2.08%

Question: Which “activity change, negative = inhibition” value does the source give for `CC(=O)Nc1cc(C(=O)NCc2ccc(F)cc2)ccc1S(=O)(=O)c1ccc(C)cc1` here?
Answer: inactive: 3.75%

Question: For `COc1cccc(-c2nnc(SCC(=O)N(C)c3ccccc3)o2)c1`, which “activity change, negative = inhibition” value is on record?
Answer: inactive: -12.8%

Question: With `CCOC(=O)c1ccc(NC(=O)CC2C(=O)N(c3cccc(OC)c3)C(=O)N2Cc2cccnc2)cc1` (configuration not stated) as the compound, how does the “activity change, negative = inhibition” value read?
Answer: inactive: -9.84%

Question: Which “activity change, negative = inhibition” value does the source give for `CC(=O)c1ccc(NC(=O)C(C)n2nc(-c3ccccc3)ccc2=O)cc1` (configuration not stated) here?
Answer: inactive: -0.787%

Question: With `CCn1c2ccccc2c2cc(CN3CCN(Cc4ccc(Cl)cc4)CC3)ccc21` as the compound, how does the “activity change, negative = inhibition” value read?
Answer: inactive: -27.2%

Question: For `Cc1cccc(C)c1NC(=O)Cn1cc(C(=O)c2ccco2)c2ccccc21`, which “activity change, negative = inhibition” value is on record?
Answer: inactive: 1.65%

Question: With `O=C(Cn1ncc2c3ccccc3n(Cc3cccc(Cl)c3)c2c1=O)NCCCc1ccccc1` as the compound, how does the “activity change, negative = inhibition” value read?
Answer: inactive: -0.685%

Question: Which “activity change, negative = inhibition” value does the source give for `COc1ccc(-c2c(C)nn3c(-c4ccccc4)cc(C)nc23)cc1OC` here?
Answer: inactive: -2.03%

Question: Which “activity change, negative = inhibition” value does the source give for `Cc1cc(C)n(C(C)CC(=O)Nc2cccc(C#N)c2)n1` (configuration not stated) here?
Answer: inactive: 2.19%

Question: For `CCc1nc(Nc2ccc(F)c(Cl)c2)c2c3c(sc2n1)CCCC3`, which “activity change, negative = inhibition” value is on record?
Answer: inactive: -5.83%

Question: For `CCOc1ccc(-c2nn(-c3ccc(F)cc3)c3c2cnc2ccc(F)cc23)cc1`, which “activity change, negative = inhibition” value is on record?
Answer: inactive: 2.98%

Question: Which “activity change, negative = inhibition” value does the source give for `Cc1cc(O)c(C(c2ccccc2)N2CCN(c3ccccc3)CC2)c(=O)n1Cc1ccco1` (configuration not stated) here?
Answer: inactive: 3.68%

Question: With `COc1ccc(N2CCN(C(=O)C3CCN(S(=O)(=O)c4cccc5nonc45)CC3)CC2)cc1` as the compound, how does the “activity change, negative = inhibition” value read?
Answer: inactive: -0.237%

Question: For `CCN1CCN(CCCNC(=O)CS(=O)(=O)Cc2nc(-c3ccccc3C)oc2C)CC1`, which “activity change, negative = inhibition” value is on record?
Answer: inactive: -8.69%

Question: For `Cc1cc(C)cc(NC(=O)c2ccc3oc(=O)c(S(=O)(=O)c4ccc(F)cc4)cc3c2)c1`, which “activity change, negative = inhibition” value is on record?
Answer: inactive: -9.25%

Question: Which “activity change, negative = inhibition” value does the source give for `COc1ccc(NC(=O)Cn2c(=O)c3cccn3c3ccccc32)cc1Cl` here?
Answer: inactive: -1.38%

Question: For `O=C(Nc1ccc(-c2nc3ccccc3o2)c(O)c1)c1ccccc1`, which “activity change, negative = inhibition” value is on record?
Answer: inactive: -28.6%

Question: With `Cc1ccc(-c2nnc(Nc3ccc(C(N)=O)cc3)c3ccccc23)cc1S(N)(=O)=O` as the compound, how does the “activity change, negative = inhibition” value read?
Answer: inactive: 3.01%

Question: For `COc1cccc2sc(NC(=O)c3ccc(S(=O)(=O)N4CCC(C)CC4)cc3)nc12`, which “activity change, negative = inhibition” value is on record?
Answer: inactive: -2.71%

Question: With `CCOC(=O)c1noc2ncnc(Nc3cc(Cl)c(OC)cc3OC)c12` as the compound, how does the “activity change, negative = inhibition” value read?
Answer: inactive: 4.12%

Question: Which “activity change, negative = inhibition” value does the source give for `COc1ccc(C)cc1NC(=O)Nc1cc(C(=O)NCc2ccc(C)cc2)ccc1N1CCCC1` here?
Answer: inactive: 8.05%

Question: For `COc1ccc(-c2nc3sc(CCNC(=O)Cc4ccc(F)cc4)c(C)n3n2)cc1`, which “activity change, negative = inhibition” value is on record?
Answer: inactive: 0.384%

Question: With `Cc1sc(-c2cc3ccccc3oc2=O)nc1-c1ccc(Cl)c(Cl)c1` as the compound, how does the “activity change, negative = inhibition” value read?
Answer: inactive: 0.495%

Question: With `CCOc1ccc(CNCc2c(C(=O)O)c(C)n(Cc3ccc(C)cc3)c2C)cc1` as the compound, how does the “activity change, negative = inhibition” value read?
Answer: inactive: -0.419%

Question: Which “activity change, negative = inhibition” value does the source give for `Cc1nnc(N2CCCC(C(=O)NCCN(C)C)C2)c2nn(-c3ccccc3)c(C)c12` (configuration not stated) here?
Answer: inactive: 0%

Question: With `CCOc1ccccc1OCCCCn1c(-c2ccc(Cl)cc2)nc2ccccc2c1=O` as the compound, how does the “activity change, negative = inhibition” value read?
Answer: inactive: 5.63%

Question: With `O=S(=O)(Nc1ccc(-c2ccc(N3CCCC3)nn2)cc1)c1ccc(C(F)(F)F)cc1` as the compound, how does the “activity change, negative = inhibition” value read?
Answer: inactive: -25.9%

Question: Which “activity change, negative = inhibition” value does the source give for `Cc1ccc(-n2ncc3c(N(C)C)ncnc32)cc1Cl` here?
Answer: inactive: -1.17%

Question: With `CCC(Sc1nc(-c2ccccc2)[nH]c1S(=O)(=O)c1ccc(C)cc1)C(=O)O` (configuration not stated) as the compound, how does the “activity change, negative = inhibition” value read?
Answer: inactive: -4.57%

Question: For `Cc1cc(=O)n(Cc2ccc(F)cc2Cl)c2c1c(C)nn2C`, which “activity change, negative = inhibition” value is on record?
Answer: inactive: -15.5%

Question: For `CC(C)c1ccc(-c2noc(SCC(=O)N3CCCCC3C)n2)cc1` (configuration not stated), which “activity change, negative = inhibition” value is on record?
Answer: inactive: -2.77%

Question: Which “activity change, negative = inhibition” value does the source give for `O=C(NCCCN1CCN(c2ccc(F)cc2)CC1)c1cc2c(Cl)nc3ccccc3c2s1` here?
Answer: inactive: -2.68%

Question: For `Cc1cccc(-c2nc(CCNC(=O)c3ccc(Br)o3)cs2)c1`, which “activity change, negative = inhibition” value is on record?
Answer: inactive: 1.42%

Question: With `Cc1cc(C)cc(OC(=O)c2cc(-c3ccc(Cl)cc3)on2)c1` as the compound, how does the “activity change, negative = inhibition” value read?
Answer: inactive: -7.35%

Question: For `CCOc1ccc(NC(=O)c2c(NCc3cccnc3)sc3c2CCC(C)C3)cc1` (configuration not stated), which “activity change, negative = inhibition” value is on record?
Answer: inactive: -16.5%
